Experimental data: PMC4336329 (PLoS ONE, 2015)
The whole screen tested about 310,000 compounds, of which about 14,000 (4.5%) showed an effect of 50% or more. The effect is printed as a negative number. This is one part of the list.

Target: human ether-à-go-go-related gene (hERG) potassium channel (human, UniProt Q12809)
Assay: primary screen, population patch clamp on CHO cells stably expressing hERG
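Further: peak tail current of the secondary pulse compared with the same well before compound.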

Sequence of human ether-à-go-go-related gene (hERG) potassium channel (Q12809 whole entry, looked up): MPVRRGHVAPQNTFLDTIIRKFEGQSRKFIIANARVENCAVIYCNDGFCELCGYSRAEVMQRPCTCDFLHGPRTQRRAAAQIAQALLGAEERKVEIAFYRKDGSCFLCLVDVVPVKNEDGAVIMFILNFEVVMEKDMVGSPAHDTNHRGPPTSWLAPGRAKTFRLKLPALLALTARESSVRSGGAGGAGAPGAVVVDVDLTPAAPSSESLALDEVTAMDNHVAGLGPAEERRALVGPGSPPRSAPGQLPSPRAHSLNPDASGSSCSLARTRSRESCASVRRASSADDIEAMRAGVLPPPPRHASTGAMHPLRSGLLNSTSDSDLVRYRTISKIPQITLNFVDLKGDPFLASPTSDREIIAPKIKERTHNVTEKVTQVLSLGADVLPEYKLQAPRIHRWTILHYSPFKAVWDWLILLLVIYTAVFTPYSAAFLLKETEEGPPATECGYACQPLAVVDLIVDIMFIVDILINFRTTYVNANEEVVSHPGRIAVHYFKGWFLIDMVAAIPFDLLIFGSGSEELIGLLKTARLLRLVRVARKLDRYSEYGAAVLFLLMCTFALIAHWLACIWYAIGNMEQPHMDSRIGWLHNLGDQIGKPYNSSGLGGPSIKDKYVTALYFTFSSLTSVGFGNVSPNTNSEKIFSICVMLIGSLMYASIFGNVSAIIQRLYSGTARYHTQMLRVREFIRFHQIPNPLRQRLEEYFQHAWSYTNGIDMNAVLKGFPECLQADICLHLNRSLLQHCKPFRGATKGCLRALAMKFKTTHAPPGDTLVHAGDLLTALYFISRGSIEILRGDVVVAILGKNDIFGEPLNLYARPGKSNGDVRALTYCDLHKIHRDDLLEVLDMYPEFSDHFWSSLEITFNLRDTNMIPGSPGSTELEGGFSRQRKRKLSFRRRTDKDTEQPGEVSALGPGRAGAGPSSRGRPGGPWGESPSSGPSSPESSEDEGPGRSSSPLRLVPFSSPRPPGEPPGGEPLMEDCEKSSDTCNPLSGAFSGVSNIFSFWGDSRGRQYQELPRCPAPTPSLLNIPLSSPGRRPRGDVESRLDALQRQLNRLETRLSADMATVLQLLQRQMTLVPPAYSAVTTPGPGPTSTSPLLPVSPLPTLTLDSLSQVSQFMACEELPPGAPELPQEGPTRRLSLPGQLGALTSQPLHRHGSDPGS

Compound	hERG current change (%, negative = inhibition) at 10uM [%]
CCCCNS(=O)(=O)c1ccc(NC(=O)Cc2ccccc2[N+](=O)[O-])cc1	2.97
Cc1cc(NC(=O)CSc2nc(=O)cc(N)n2-c2ccc(C)c(C)c2)no1	8.97
CCC1CCCCN1CCNS(=O)(=O)c1ccc2c(c1)CCN2C(C)=O (stereo not shown)	-1.09
O=C(CNS(=O)(=O)c1ccc(Cl)cc1)N/N=C/c1ccco1	10.5
NS(=O)(=O)c1ccc(CCNc2nc(C(F)(F)F)nc3ccccc23)cc1	26
CCn1c(=S)[nH]c2cc(C(=O)OC)ccc2c1=O	19.6
CCC1(C)Cc2[nH]c(=O)c(C#N)cc2CO1 (stereo not shown)	12.7
O=C(Nc1ccccc1[N+](=O)[O-])c1cc(S(=O)(=O)Nc2ccccn2)ccc1Cl	14.7
Cc1nc(N)nc(Cl)c1Cc1ccc(Cl)cc1	16.1
CC(NC(=O)Cn1cccc1C(=O)c1ccccc1)c1ccccc1 (stereo not shown)	17.8
Cc1ccc(CS(=O)Cc2ccc(C(=O)NCCc3ccccc3)o2)cc1 (stereo not shown)	-7.62
Cc1ccc(C(=O)Nc2nnc(S(=O)(=O)N3CCN(c4ccc(F)cc4)CC3)s2)cc1	2.59
COC(=O)c1c(NC(=O)c2cccc(S(=O)(=O)N3CCN(C)CC3)c2)sc(C)c1C	13.4
CC(=O)N/C(=C\c1ccccc1)C(=O)OCCCOC(=O)/C(=C/c1ccccc1)NC(C)=O	2.78
C/C(=N\O)c1ccc2c3ccccc3n(C)c2c1	25.3
O=C(CSc1ccccc1Cl)c1ccco1	-7.76
Cc1cc(=O)[nH]c(SCC(=O)Nc2ccc(C)c(S(=O)(=O)N3CCCCC3)c2)n1	-4.5
Cc1cc(NC(=O)CCC(=O)N(CC2CCCO2)C(C(=O)NC2CCCC2)c2ccccc2C)no1 (stereo not shown)	3.34
Cc1csc2c(SCC(=O)NNS(=O)(=O)c3cccc(C(F)(F)F)c3)ncnc12	21.7
O=C(COc1ncnc2ccccc12)c1ccc(Cl)cc1	26
Cl.NCCCC[C@H](N)c1nnc([C@H](CCC(=O)O)NC(=O)C2CCNCC2)o1	11.6
C/C=C/C(=O)OCC(=O)Nc1cc(OC)c([N+](=O)[O-])cc1C	-17.6

Compound	hERG current change (%, negative = inhibition) at 10uM [%]
CCOC(=O)c1cnc2c(-c3ccccc3)cnn2c1C	6.71
CC(NCC1COc2ccccc2O1)C1COc2ccccc2O1 (stereo not shown)	3.1
COc1ccc(C(=O)C2CCCN(C(=O)c3ccoc3C)C2)cc1F (stereo not shown)	-6.04
CC1CC(C)(C)NC(=S)N1CCCC(=O)Nc1ccc(Cl)cc1 (stereo not shown)	-13.6
CCOc1cc(N2CCOCC2)c(OCC)cc1NS(=O)(=O)c1ccc(Cl)s1	-0.532
O=C1C2CC=CCC2C(=O)N1c1ncn[nH]1 (stereo not shown)	13.6
O=c1cc(CSc2nnc(-c3ccccc3)o2)c2ccccc2[nH]1	11.9
COc1ccc(SCC(=O)c2cc(C)c(OC(=S)N(C)C)c(C)c2)cc1	12.7
COC(=O)c1c(C(=O)OC)c(-c2cccc(F)c2)n2c1CS(=O)(=O)C2	-16
C/C(=N/NC(=O)c1ccccn1)c1ccc(O)cc1	11.3
CCC(=NCc1ccco1)c1c(O)n(-c2ccccc2C)c(=O)[nH]c1=O	10.6
CCN(CC)CCNC(=O)c1cn(CCOC)c(=O)c2c1c1ccccc1n2C	0.745
O=C(COc1ccc2ccccc2c1Br)N1CCCCC1	-0.386
C=CCNC(=O)c1c(Br)cnn1-c1ccc(C)cc1	17.6
O=C(C1CCC1)N1CCC(O)(c2cccc(F)c2)CC1	14.6
CC(C)(C)C1=C(C#N)C(c2ccc3c(c2)OCO3)C(C#N)=C(N)O1 (stereo not shown)	-18.2
Cc1cccc(C(=O)OCC(=O)N(CC(C)C)c2c(N)n(Cc3ccccc3)c(=O)[nH]c2=O)c1O	10.9
COc1ccc(/C(O)=C/C(=O)C(=O)Nc2c(C)n(C)n(-c3ccccc3)c2=O)cc1	8.01
CCc1noc(C)c1C(=O)Nc1cccc(S(=O)(=O)N2CCCCCC2)c1	-56
N/C(=N\OS(=O)(=O)c1ccc2ccccc2c1)c1cccnc1	5.24
CC(=O)N1CC=CC1(CC(C)C)C(=O)NCCN1CCOCC1 (stereo not shown)	23.6
CCN(CC(=O)NC1CCS(=O)(=O)C1)S(=O)(=O)c1ccccc1Cl (stereo not shown)	-0.0308

Compound	hERG current change (%, negative = inhibition) at 10uM [%]
N/C(=N\OC(=O)Cc1ccccc1)c1ccccc1Cl	10.8
Nc1ncnc2nc(SCC(=O)Nc3cccc(C(F)(F)F)c3)[nH]c12	-8.98
CCOc1ccc(C(=O)NC(=S)Nc2ccc(N3CCOCC3)c(Cl)c2)cc1[N+](=O)[O-]	2.8
Cc1cccc(Cc2c(C)nc3c(C(=O)N4CCN(Cc5ccc6c(c5)OCO6)CC4)cnn3c2C)c1	-27.4
Cc1nc(-c2cccc(NC(=O)COc3ccc(Cl)cc3)c2)cs1	-6.02
FC(F)Oc1ccc(/C=N/N2CCCCC2)c(OC(F)F)c1	-20.6
NCCCC[C@@H](C(=O)N1CCNCC1)n1cc(CN)nn1	7.95
COc1ccc(C2(C#N)CC[N+](C)(C)CC2)cc1.[Br-]	1.7
Cc1ccc(C(=O)C(OC(=O)CNS(=O)(=O)c2ccccc2)c2ccccc2)cc1 (stereo not shown)	3.06
O=C(COC(=O)c1nc(Cl)ccc1Cl)NC1CCS(=O)(=O)C1 (stereo not shown)	15.6
CC(C)(C)CC(C)(C)NCC(O)COc1ccc2c(c1)CCC2.Cl (stereo not shown)	-20.2
CCOC(=O)Cn1c(CN2CCN(c3cccc(Cl)c3)CC2)nc2c1c(=O)[nH]c(=O)n2C	-31.9
CCOCCCNC(=S)Nc1cc(OCC)c(NC(=O)c2ccco2)cc1OCC	12.3
COCCn1c(N2CCN(c3ccc(OC)cc3)CC2)nc2c1c(=O)n(C)c(=O)n2C	-0.941
CCC(=O)NC(NC(=O)CC)C(Cl)Cl	9.89
CC(c1cccs1)N(Cc1ccco1)C(=O)Nc1ccc(Cl)c(Cl)c1 (stereo not shown)	-0.32
CCCCOC(=O)Nc1nnc(C(C)C)s1	17.3
O=C(Cn1cnc([N+](=O)[O-])c1)c1ccc(F)cc1	6.88
CCCC[n+]1ccn(C2=C([O-])c3ccccc3C(=O)/C2=N\S(=O)(=O)c2ccc(Cl)cc2)c1	-17.8
CC1CCC(NC(=O)CCCn2sc3ccccc3c2=O)CC1 (stereo not shown)	15.4
CC(NC(=O)c1cc2ccccc2oc1=O)c1ccccc1 (stereo not shown)	-8.03
CCCC1(c2ccccc2)NC(=O)N(CC(=O)NCC2COc3ccccc3O2)C1=O (stereo not shown)	-8.57

Compound	hERG current change (%, negative = inhibition) at 10uM [%]
Cc1nn(-c2ccccc2)c(C)c1/C=N/n1c(-c2ccc(C(C)(C)C)cc2)n[nH]c1=S	14.9
COc1ccc(NC(=O)C2CCCN(C(=O)c3ccc(Cl)cc3)C2)cc1Cl (stereo not shown)	-2.32
O=C(NS(=O)(=O)c1ccccc1[N+](=O)[O-])c1ccccc1	9.38
Cc1cc(C)c(NC(=O)C(C)OC(=O)c2cc(Br)c(Br)s2)c(C)c1 (stereo not shown)	12.9
Cc1ccc(/C=N/Nc2nc3ccccc3[nH]2)s1	-22.9
COc1ccc(S(=O)(=O)NCc2ccncc2)cc1NC(=O)c1ccc(Cl)cc1	-67.4
O=c1cc(CO)oc(C(Nc2cccc([N+](=O)[O-])c2)c2ccccn2)c1O (stereo not shown)	-18.4
Cc1ccc(N(CC(=O)NC2CCCCC2)C(=O)c2ccc(C)s2)cc1	-11.2
Cc1cc(C)n(-c2ccccc2C#N)n1	5.3
CCOC(=O)Cn1c(S(=O)(=O)Cc2ccccc2Cl)nc(-c2ccccc2)c1-c1ccccc1	-6.2
CC(C)(C)Nc1nc2ccc([N+](=O)[O-])cc2o1	-11.7
CCC(=O)Nc1cc2c3c(c1)CCC(=O)N3CCC2	1.44
O=C(NCc1ccco1)c1sc2cc(F)ccc2c1Cl	-6.31
COc1ccccc1NC(=O)c1ccc(NC(=O)c2cc3c(s2)CCC3)cc1	18.1
O=C(Cc1ccccc1)NNC1CC(=O)N(c2ccc(Br)cc2)C1=O (stereo not shown)	19.3
O=C(Cc1ccc(Cl)cc1)Nc1nc2ccccc2[nH]1	-3.81
O=C(COC(=O)c1cccnc1Cl)NCc1cccs1	1.71
CCCOc1ccc(N2C(=O)CC(N(CCc3ccc(OC)cc3)C(=O)c3cccc(F)c3)C2=O)cc1 (stereo not shown)	-8.44
COc1ccc(CC(=O)Nc2ccc3c(c2)C(=O)N(CCC(=O)O)C3=O)cc1	11.7
O=C(NCc1ccccn1)c1ccc(OC2CCN(Cc3cccs3)CC2)cc1	-11.9
COc1ccc2ccccc2c1/C=N/NC(=O)c1sc(N)c(C#N)c1C	-15.7
O=C(O)CCCn1cc(NC(=O)COc2cccc(Cl)c2)cn1	14.5
